Reference: PubChem BioAssay AID1347417 (National Center for Advancing Translational Sciences (NCATS), 2020)
Screen size: about 120,000 compounds; about 5,300 (4.4%) were called active. Inconclusive means that the source gave no clear call. Such entries were picked first, then a sample of the others. Calls come from the whole dose curve; as a rule, active = well fitted inhibition curve with a large enough effect; inconclusive = small, poorly fitted or top-dose-only effect; inactive = no such curve, though single readings can be large or run the other way. Where the call is inconclusive, the potency comes from a doubtful curve fit.

Assay: qHTS Primary assay for Inhibitors of Plasmodium falciparum Dd2 growth in vitro; note: nearly all actives have a fitted effect of over 65% in size;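 for activity, negative = inhibition: plate controls were DMSO vehicle for no effect and reference drug for full effect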
Settings: P. falciparum Dd2 growth, SYBR Green, 72 h; activity, negative = inhibition: at 28.9 µM (top of the series) unless noted; series mostly up to 28.9 µM
In short: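 Infected erythrocytes (Dd2, 0.3% parasitemia, 2.5% hematocrit final) are added to compound in RPMI-1640/Albumax II medium, grown 72 h at 37C in low oxygen, then lysed with saponin/Triton-X containing SYBR Green and read by fluorescence.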
Potency is the fitted concentration of half-maximal effect; tags give direction and shape of the fitted curve.

Structure (SMILES) | Potency | activity, negative = inhibition | outcome
O=C(c1nnc(COc2ccc3c(c2)OCO3)n1Cc1ccccc1)N1CCC[C@@H]1c1ccc(Br)cc1 | inconclusive: 15.8 µM [inhibitor, partial curve, poor fit] |  | 
Cc1ccc(CN2C(=O)CC(c3ccc(Cl)cc3)c3c(C)nn(-c4nc(C)cc(C)n4)c32)cc1 (stereo unspecified) | inconclusive: 17.8 µM [inhibitor, single point] |  | 
COc1ccc(-n2nc3c(c2NC(=O)C(=O)NCc2ccccc2)CSC3)cc1 | inconclusive: 17.8 µM [inhibitor, single point] |  | 
COc1cccc(C(=O)N2CCC(Oc3ncccc3C(=O)N3CCCCC3)C2)c1OC (stereo unspecified) | inconclusive: 17.8 µM [inhibitor, single point] |  | 
CCCC(=O)Nc1nc2c(s1)CC(C(C)(C)C)CC2 (stereo unspecified) | active: 12.6 µM |  | 
COc1ccc(C2Cn3nnc(C(=O)N4CCN(C(=O)c5sccc5C)CC4)c3CO2)cc1 (stereo unspecified) | inconclusive: 11.2 µM [inhibitor, single point] |  | 
Cc1cc(C(=O)N2CCCCCC2c2nnc(-c3ccccc3)o2)nn1C (stereo unspecified) |  | inactive: -25% | 
COc1ccc(-n2c(=O)c3ccc(C(=O)NCc4ccc(C)cc4)cc3n(Cc3ccc(F)cc3Cl)c2=O)cc1 | inconclusive: 2.24 µM [inhibitor, single point] |  | 
CCC(C)NC(=O)C1COC2(CCN(C(=O)c3cccc(Cl)c3)CC2)N1C(=O)c1ccccc1C (stereo unspecified) | inconclusive: 1.12 µM [inhibitor, full curve, poor fit] |  | 
COCc1nc2nc(-c3ccccc3)c(-c3ccc(N4CCN(C)CC4)nc3)cc2n1C | inconclusive: 12.6 µM [inhibitor, partial curve, poor fit] |  | 
COc1cccc(CN2CCCC3(CN[S+](=O)([O-])c4ccccc4N3)C2)c1 (stereo unspecified) |  | inactive: -11.7% | 
Cc1cc(C)cc(-c2cccc(CN)c2)c1 | inconclusive: 10 µM [inhibitor, partial curve, poor fit] |  | 
Cc1cnc(C(=O)N2CCCC(c3nc(-c4ccccc4)no3)CCNC(=O)CC2)cn1 (stereo unspecified) |  |  | inactive
CC(C)Oc1cccc(-c2nnc(CCC(=O)NCCc3cccs3)c(=O)[nH]2)c1 |  | inactive: 2.82% | 
CN(Cc1ccc(F)cc1)C(=O)c1cn(Cc2ccccc2C(F)(F)F)nn1 |  | inactive: -20% | 
Cc1cccc(CN2CC(Oc3cccc(C(=O)NCC4CC4)c3)C2)c1 | inconclusive: 17.8 µM [inhibitor, single point] |  | 
CC(C)c1ccc(CN2C[C@@H]3C(=O)N(CCCN4CCCC4=O)C(=O)[C@@H]3C2)cc1 |  | inactive: -32.3% | 
COc1cccc(N2CCN(c3nc(C(=O)NCc4ccco4)cs3)CC2)c1 | inconclusive: 4.47 µM [inhibitor, partial curve, poor fit] |  | 
Cc1ccc(CN2CCc3nc(N4CCN(c5ccccc5F)CC4)ncc3C2)s1 | inconclusive: 2.82 µM [inhibitor, full curve, poor fit] |  | 
Cc1cccc(C(=O)Nc2ccc3nc(SCC(=O)N4CCc5ccccc54)sc3c2)c1 | inconclusive: 0.501 µM [inhibitor, full curve] |  | 
CC(C)CCN1CCCC(c2nn(-c3ccccc3)c(=O)[nH]2)C1 (stereo unspecified) | inconclusive: 7.08 µM [inhibitor, partial curve, poor fit] |  | 
CCC(=O)N1CCC2(CC1)C(OC)CN2c1ccc(C)cc1 (stereo unspecified) | inconclusive: 10 µM [inhibitor, partial curve, poor fit] |  | 

Structure (SMILES) | Potency | activity, negative = inhibition | outcome
COc1ccc(NC(=O)c2ncoc2-c2ccco2)cc1Cl | inconclusive: 8.91 µM [inhibitor, single point] |  | 
CCOC1CCOC2(CCN(C(=O)c3nn(C)c4ccccc34)CC2)C1 (stereo unspecified) | inconclusive: 5.01 µM [inhibitor, partial curve, poor fit] |  | 
CC(C)CN1C[C@@H](NC(=O)c2cccnc2)C[C@H]1CO | inconclusive: 17.8 µM [inhibitor, single point] |  | 
CCOC(=O)c1cccc(NC(=O)C2CCN(S(=O)(=O)c3c(C)noc3/C=C/c3ccc(C)cc3)CC2)c1 | inconclusive: 17.8 µM [inhibitor, single point] |  | 
COc1ccc(NC(=O)c2cc(C(C)=O)n3ccccc23)cc1Cl | inconclusive: 17.8 µM [inhibitor, single point] |  | 
CCCCNC(=O)c1ccc2c(c1)n(Cc1cccc(OC)c1)c(=O)c1ccnn12 | inconclusive: 20 µM [inhibitor, single point] |  | 
COc1ccc(C(=O)N2CC[C@H](CO)[C@H](NC(=O)C3CC3)C2)c(OC)n1 |  | inactive: 20.3% | 
O=C1CCN(S(=O)(=O)c2ccccc2)CCCN(C(=O)CCC2CCCC2)CCN1 | inconclusive: 17.8 µM [inhibitor, single point] |  | 
CCCN(C)c1nccnc1OC1CCN(C(=O)c2ccc(OC)nc2OC)C1 (stereo unspecified) | inconclusive: 5.01 µM [inhibitor, partial curve, poor fit] |  | 
CCOc1ccccc1C(=O)N1Cc2cnc(Cc3ccc(OC)cc3)nc2C1 | inconclusive: 12.6 µM [inhibitor, partial curve] |  | 
Cc1ccc(C)c(Nc2nn3c(=O)c4ccc(C(=O)N(C)Cc5ccccc5)cc4nc3s2)c1 | inconclusive: 11.2 µM [inhibitor, single point] |  | 
CC(C)Nc1nccc(C2(c3ccccc3Cl)CCNCC2)n1 | inconclusive: 1.78 µM [inhibitor, full curve] |  | 
Cn1nnnc1C1CCCN(C(=O)c2ccc(F)cc2)C1 (stereo unspecified) |  | inactive: 8.99% | 
CNC(=O)CN(C)C(=O)c1coc(COc2ccc3ccc(OC)cc3c2)n1 |  | inactive: -21% | 
O=C(NC1CCCN(c2cc(-c3ccccc3)[nH]n2)C1)c1cccc(Cl)c1 (stereo unspecified) | inconclusive: 0.0891 µM [inhibitor, full curve, poor fit] |  | 
Cn1cnc(S(=O)(=O)N2CCCC(Cn3cnc4cccnc43)C2)c1 (stereo unspecified) |  | inactive: 7.22% | 
COc1ccc(C2Cn3nnc(C(=O)N4CCC(C(=O)NCc5cccc(C)c5)CC4)c3CO2)cc1 (stereo unspecified) |  | inactive: -16.6% | 
CCOc1ccc2oc(=O)cc(CN3CCN(C(=O)c4cccc(Cl)c4)CC3)c2c1 |  |  | inactive
COCCn1ncc(N2CCC(C(=O)N3CCN(CC(=O)Nc4ccc(C)cc4)CC3)C2)cc1=O (stereo unspecified) |  |  | inactive
O=C(Cn1nc2n(c1=O)CCCCC2)NCc1ccc(Cl)cc1 |  | inactive: 23.3% | 
CC1=C(C(=O)NCCc2c[nH]c(=O)[nH]c2=O)C(c2cccnc2)NC(=O)N1 (stereo unspecified) |  | inactive: -16.2% | 
COc1ncc(-c2ccnc(-c3nnc(C)n3-c3ccccc3)c2)cn1 | inconclusive: 2 µM [inhibitor, partial curve, poor fit] |  | 

Structure (SMILES) | Potency | activity, negative = inhibition | outcome
COc1ccc(Nc2oc(/C=C/c3cc(OC)c(OC)c(OC)c3)nc2C#N)cc1 | inconclusive: 10 µM [inhibitor, single point] |  | 
O=C1CCN(C2CCOCC2)CCCC(c2nc(-c3cccnc3)no2)CCN1 (stereo unspecified) |  | inactive: -1.11% | 
COc1ccc(CNC(=O)N(C)C2CCc3nnc(C)n3CC2)cc1 (stereo unspecified) |  |  | inactive
CCCCN(CC)C(=O)CSc1nc2ccccc2c(=O)n1Cc1ccco1 | inconclusive: 10 µM [inhibitor, single point] |  | 
COc1cc(-c2nc(-c3ccccc3)c(-c3ccc(Br)cc3)[nH]2)cc(OC)c1O | active: 1.41 µM |  | 
CCN1CCCC12Cc1ccccc1CN([S+](C)(=O)[O-])C2 (stereo unspecified) | inconclusive: 1.26 µM [inhibitor, partial curve, poor fit] |  | 
CC(C)c1noc(CC2CCN(C(=O)c3ccc(F)cc3)CC2)n1 |  | inactive: 17.1% | 
COC(=O)c1cc2sc(Cl)cc2n1Cc1nc(-c2ccccc2C)oc1C |  | inactive: 52.3% | 
CCC1CCCCN1CCCNC(=O)c1c(O)nc2cc(C)ccn2c1=O (stereo unspecified) | inconclusive: 5.62 µM [inhibitor, partial curve] |  | 
COc1ccc(CNC(=O)NCC(=O)N2CCCCCCNC(=O)CC2c2ccccc2)cc1 (stereo unspecified) | active: 8.91 µM |  | 
CN(Cc1cnc(N)nc1)C(=O)C(c1cccc(F)c1)N(C)C (stereo unspecified) |  | inactive: 8.19% | 
CC(=O)N1CCc2c(sc3c2c(=O)n(Cc2ccccc2)c(=O)n3Cc2ccccc2Cl)C1 | inconclusive: 10 µM [inhibitor, single point] |  | 
COc1cc2c(cc1OC)C(COc1ccccc1OC)N(C(=O)c1ccc(S(=O)(=O)N(C)C)cc1)CC2 (stereo unspecified) |  |  | inactive
Cc1ccc(Cl)cc1N1CCN(C(=O)COc2cc(=O)n(C)c3ccccc23)CC1 | inconclusive: 12.6 µM [inhibitor, single point] |  | 
OCC#Cc1csc(CN2CCCN(C3CCCCC3)CC2)c1 | inconclusive: 7.08 µM [inhibitor, partial curve] |  | 
Cc1cc(C(=O)NCCc2csc(-c3cccnc3)n2)cc(S(N)(=O)=O)c1C | inconclusive: 10 µM [inhibitor, partial curve, poor fit] |  | 
COc1ccc(-c2ccc3c(c2)C(=O)N2CC[C@H](NC(=O)C4CCNCC4)C[C@H]2C(=O)N3)c(OC)c1 | inconclusive: 3.98 µM [inhibitor, single point] |  | 
CCc1ccc(NC(=O)CCCc2nnc3n(C(C)CC)c(=O)c4sccc4n23)cc1 (stereo unspecified) | inconclusive: 8.91 µM [inhibitor, partial curve, poor fit] |  | 
COCC(=O)N1CCC(c2nn(-c3ccc(Cl)cc3)c(=O)[nH]2)CC1 | inconclusive: 20 µM [inhibitor, single point] |  | 
O=C(c1ccco1)N1CCN(C(=O)c2nnn3c2COC(c2ccc(Cl)cc2)C3)CC1 (stereo unspecified) | inconclusive: 3.98 µM [inhibitor, single point] |  | 
COc1ccc(-c2cc(C[C@H]3CNCC[C@H]3CC(=O)N3CCN(C(C)=O)CC3)no2)cc1 |  | inactive: 5.41% | 
CC(C)(C)c1nc(C(=O)NCCc2ccc(Cl)cc2)n2ccccc12 | inconclusive: 7.94 µM [inhibitor, partial curve, poor fit] |  | 
